{
  "source": "paper PMC12136788",
  "binders": {"B1": {"name": "chr3:124966548:124966651:-|3pUTR|ENSG00000173706|unk|FALSE|bound_elsewhere (ssRNA)", "RNA": "GGGAGUUCUACAGUCCGACGAUCAGGAAGAAUGCAAAGUUCAGUAUUUCAAUACUUUGUAUUUUACUUGAAAUUACCCUUAGUAGCAUCUUUUUUUUCCUGUCUGAAAGCUUUUGUGUGGAUGAGAAGGGACAUUUCAUUUCCCAACAGAGGAUUGAGCAUCA"}, "B2": {"name": "chr3:196782704:196782805:+|CDS|ENSG00000180370|unk|FALSE|bound_elsewhere (ssRNA)", "RNA": "GGGAGUUCUACAGUCCGACGAUCAACGGAGAACUGGAAGAUAAGCCUCCAGCACCUCCUGUGCGAAUGAGCAGCACCAUCUUUAGCACUGGAGGCAAAGACCCUUUGUCAGCCAAUCACAGUUUGAAACCUUUGCCCUCUGUUCAACAGAGGAUUGAGCAUCA"}, "B3": {"name": "chr13:52643008:52643109:+|CDS|ENSG00000139675|unk|FALSE|unique (ssRNA)", "RNA": "GGGAGUUCUACAGUCCGACGAUCCAUACUGUGAAGGGCCACAACUGUGAAGUUAGAAAAGCCCUGCCAAAGCAAGAGAUGGCUAGUGCUUCAUCCAGCCAAAGAGGUCGAAGGGGUUCUGGAAACUUUGGUGGUGGUCGUGGACAACAGAGGAUUGAGCAUCA"}, "B4": {"name": "chr11:119045269:119045370:-|3pUTR|ENSG00000149428|msi1|total|mutant (ssRNA)", "RNA": "GGGAGUUCUACAGUCCGACGAUCUGUGGUUAAAAAUGGAAACUGUUCUCCUCCCCAGCCCCACUCCCUGUUCCCUACCCAUACCGGCCCUAAAUUUGGGAAAAAUCACUAUUAAUUUCUGAAUCCUUUGCCUGUGGGCCGGAACAACAGAGGAUUGAGCAUCA"}, "B5": {"name": "chr8:72021249:72022905:-|three_prime_utr|ENSG00000104321|control|control|control (ssRNA)", "RNA": "GGGAGUUCUACAGUCCGACGAUCGCAGAUAUGUUCAAAUUGGACUGGACUUUGAUGAGAUAUAAUCUCAUUAUUUGAAUGGGUAGAAAAUGAAUUUGCUAGAACACACAUUUUUAAUGAAAAGAAGUAAUAAAUGUAACUAUUCAACAGAGGAUUGAGCAUCA"}, "B6": {"name": "chrX:153907366:153907962:-|three_prime_utr|ENSG00000089820|control|control|control (ssRNA)", "RNA": "GGGAGUUCUACAGUCCGACGAUCAGGCUUCUCCCGGGGCCCUGGGGCCCCAGCCUCACCCUCAGCUUCCCACCCCCAGGGCCUAGACACGACCCCCAAGCCACACUGAGGUGCCGCUGCUGGAGAUGCGUGCCCCCGGCGGCUCAACAGAGGAUUGAGCAUCA"}, "B7": {"name": "chr10:30461265:30461366:+|3pUTR|ENSG00000107968|unk|FALSE|unique (ssRNA)", "RNA": "GGGAGUUCUACAGUCCGACGAUCUCUUUGAGCCUUUAUUGGUAAAUUCUGGUAUACAUUGAAUUCAUUAUAAUUUGGGUGACUAGAACAACUUGAAGAUUGUAGCAAUAAGCUGGACUAGUGUCCUAAAAAUGGCUAACUGAUCAACAGAGGAUUGAGCAUCA"}, "B8": {"name": "ENSG00000124766:be:win_1951|3pUTR|ENSG00000124766|bound_else_gene|NA|bound_elsewhere_windowed (ssRNA)", "RNA": "GGGAGUUCUACAGUCCGACGAUCCCCCCCUUUUUUUAAACGCGUGAUGAAGACAGAAGGCUCCGGGGUGACGAAUUUGGCCGAUGGCAGAUGUUUUGGGGGAACGCCGGGACUGAGAGACUCCACGCAGGCGAAUUCCCGUUUCAACAGAGGAUUGAGCAUCA"}, "B9": {"name": "chr1:37709127:37709197:+|3pUTR|ENSG00000134690|msi1_unk|FALSE|overlapping (ssRNA)", "RNA": "GGGAGUUCUACAGUCCGACGAUCUGAAGACCAAAUACUGGUUUGGAGACAACUUCCAUGUCUUGCUCUUCUACCUCCCUAGUUAGUGGAAAUUUGGAUAAGGGAACUGUAGGGCCCAGAUUCUGGAGGUUUUAUGUCAUUGGCCAACAGAGGAUUGAGCAUCA"}, "B10": {"name": "chr2:112646914:112647020:+|CDS|ENSG00000144136|unk|FALSE|unique (ssRNA)", "RNA": "GGGAGUUCUACAGUCCGACGAUCGCUCAUCCUGGGCUUCAUUAUUGCAUUUGUCUUGGCAUUCUCCGUGGGAGCCAAUGAUGUAGCAAAUUCUUUUGGUACAGCUGUGGGCUCAGGUGUAGUGACCCUGAAGCAAGCCUGCAUCAACAGAGGAUUGAGCAUCA"}, "B11": {"name": "chr7:33006061:33006162:+|3pUTR|ENSG00000122642|msi1_unk|total|mutant (ssRNA)", "RNA": "GGGAGUUCUACAGUCCGACGAUCGGCAUCUCAGACCACAAACCGAGAAUUUGAUUCCUCAUUUGCCACAUAAGUCAUCUGCUCCGCUUUUCCUUUCCUUUUUUUUUUUUUUUUUUUUUCUGGAGGCAGAGUCUCCCUUUGUCGCAACAGAGGAUUGAGCAUCA"}, "B12": {"name": "chr2:149026443:149026544:+|3pUTR|ENSG00000168280|msi1|FALSE|bound_elsewhere (ssRNA)", "RNA": "GGGAGUUCUACAGUCCGACGAUCGUAAAGUGUGUCCUGUGUACUGCAGAUGUGUGUUCUCUGGGCUUUAUGUAUCUGUACAGUAGCUUUCACAUUAAAAAAAUUGUGGACAAACUUGUCCGGGGGGUUUGAGGGGAGAAUGGUCAACAGAGGAUUGAGCAUCA"}, "B13": {"name": "chr16:22286016:22286117:+|3pUTR|ENSG00000103319|msi1|FALSE|unique (ssRNA)", "RNA": "GGGAGUUCUACAGUCCGACGAUCCUGAGCCCAGCCAAGACUUCAGUGUUGACUGCUUUGGAGGCACAAACCCAUGCAAGCGUUAGUUCCAAAGUUCAGUGUGUACCCUUAAAUGAACAAUGAAGCAGGUAAAAUUACCCUUGACAACAGAGGAUUGAGCAUCA"}, "B14": {"name": "ENSG00000136451:be:win_2551|3pUTR|ENSG00000136451|bound_else_gene|NA|bound_elsewhere_windowed (ssRNA)", "RNA": "GGGAGUUCUACAGUCCGACGAUCUCACUAGAGUUUAUGUCUUAUAUUAAAUUGUAUACAGUUUUUAUUCUAACCACUAACUAGGUAGUGUAUGCCCCUUCAGAACAUGCAGAGUGUAUCUUUUUUUAAAUUUCUCCUUCCGUUCAACAGAGGAUUGAGCAUCA"}, "B15": {"name": "chr11:92354873:92354974:+|CDS|ENSG00000165323|unk|FALSE|bound_elsewhere (ssRNA)", "RNA": "GGGAGUUCUACAGUCCGACGAUCGUCACUCUUAAAGUUUUUUUAGAUGAUGUCAAUGACUGCUCCCCAGCUUUCAUUCCCAGUAGCUAUAGUGUGAAGGUUCUUGAAGAUCUCCCUGUUGGCACUGUCAUUGCUUGGCUUGAGCAACAGAGGAUUGAGCAUCA"}, "B16": {"name": "chr14:55188946:55189174:-|CDS|ENSG00000126787|unk|total|mutant (ssRNA)", "RNA": "GGGAGUUCUACAGUCCGACGAUCAUUGCUCACCGGAAAUCACUGUCUCAGAAAGAAAACCGACAUAAGGAAUACGAACGAAACCGACACUUUGGUUUGAAAGAUGUAAACAUUCCAACCUUGGAAGGCCGAAUUCUUGUUGAACAACAGAGGAUUGAGCAUCA"}, "B17": {"name": "chr3:15255350:15255451:-|3pUTR|ENSG00000131370|msi1|total|mutant (ssRNA)", "RNA": "GGGAGUUCUACAGUCCGACGAUCUGGGGUGGGAAAGGUGAAUGCCAGUGGGGAUGCGGGGGGAUGAGGGCCGGAGGGACUUACCGAAGGGGAUUUGUGGCUGUGGGGGAGAAGGUUCUACAGCAUAAGCCUUAUCCUGCCAGCCAACAGAGGAUUGAGCAUCA"}, "B18": {"name": "chr22:36488912:36489013:-|3pUTR|ENSG00000100350|msi1|FALSE|unique (ssRNA)", "RNA": "GGGAGUUCUACAGUCCGACGAUCCUAGUCUCUUCUUCAUUGCCCUUCCUCACCAGCAAUCUGCACUUUCCCAUCAGGCGUCUUAGUCUCAUUUGUAAGUGCAUAAGAUAAUCACAGUGAUUUUUCAAAGCCCAGGAUCAUAAGCAACAGAGGAUUGAGCAUCA"}, "B19": {"name": "chr4:48579112:48579224:-|CDS|ENSG00000075539|unk|total|mutant (ssRNA)", "RNA": "GGGAGUUCUACAGUCCGACGAUCCUCUAUUGCCCCCGCUCGACCGAUUUACAAACUUCCGCAGAAUGGAACUCUUCUCCUAUCCGCCACCAGUUUGAUGUGAUCCGUCCAUCACAUAUAUGGAUAUUUGCACAUGUGACCCAACAACAGAGGAUUGAGCAUCA"}, "B20": {"name": "ENSG00000198589:be:win_4401|CDS|ENSG00000198589|bound_else_gene|NA|bound_elsewhere_windowed (ssRNA)", "RNA": "GGGAGUUCUACAGUCCGACGAUCGGGAGAUAAAGCCUUGAAACCAAUGCAUAGCCUUAUUCCUUUAGGGAAAUCUGCAGCGAAGAGCCCAGUGGACAUUGUGACUGGCGGUAUAUCUCCAGUAAGAGAUCUUGACAGGCUUCUCAACAGAGGAUUGAGCAUCA"}, "B21": {"name": "ENSG00000136451:be:win_4301|3pUTR|ENSG00000136451|bound_else_gene|NA|bound_elsewhere_windowed (ssRNA)", "RNA": "GGGAGUUCUACAGUCCGACGAUCCUCUAGGGCUCGCUGCUUGGCCUGCGUUUGCUUUUUAUUGUGUAUCCGUUCCCCUCCUACGGUGUGCUCCUGAAUGAAGGUUUCUAUGUAAGCAGAUGAUGAUUUUACCUGUCAAUACCACAACAGAGGAUUGAGCAUCA"}, "B22": {"name": "chr22:20586770:20586871:+|3pUTR|ENSG00000099917|unk|FALSE|unique (ssRNA)", "RNA": "GGGAGUUCUACAGUCCGACGAUCACACGCCUCCUGUCAGACACUUCUAGGUGUUGGCUUCCUUAGAGAGCCUGGGGUUAGGUUAGCUUUCCUGCUUUUAUCUUCUGCCUUGGGGACCUGCCAAACGAAAUCCCACACCUGUACCAACAGAGGAUUGAGCAUCA"}},
  "note": "The list shows a part of the results.",
  "data": [
    {"target": "MSI1 full-length (mouse, UniProt Q61474 1-362)", "sequence (Q61474 whole entry)": "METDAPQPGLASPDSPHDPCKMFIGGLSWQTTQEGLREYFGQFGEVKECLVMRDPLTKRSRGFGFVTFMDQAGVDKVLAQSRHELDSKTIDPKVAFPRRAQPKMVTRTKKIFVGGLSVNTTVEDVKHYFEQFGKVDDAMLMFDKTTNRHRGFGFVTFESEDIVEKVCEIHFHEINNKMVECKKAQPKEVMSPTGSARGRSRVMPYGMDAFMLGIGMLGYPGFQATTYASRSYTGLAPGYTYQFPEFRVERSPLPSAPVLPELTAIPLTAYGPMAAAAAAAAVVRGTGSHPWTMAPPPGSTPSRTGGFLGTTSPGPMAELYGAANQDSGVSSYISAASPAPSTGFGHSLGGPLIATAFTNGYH", "assay": "nsRBNS (natural sequence RNA bind-n-seq); RBNS binding buffer (assumed for nsRBNS): 25 mM Tris pH 7.5, 150 mM KCl, 3 mM MgCl2, 0.01% Triton X-100, 500 ug/ml BSA, 20 U/ml SUPERase-In, 4 C; UNK is unkempt and MSI1 is Musashi-1; names of the RNAs are library labels; protein concentration not given here; high values mean tight binding", "units": {"binding signal": "enrichment R"}, "values": [
      {"binder": "B1", "binding signal": 0.879},
      {"binder": "B2", "binding signal": 0.353},
      {"binder": "B3", "binding signal": 0.428},
      {"binder": "B4", "binding signal": 0.426},
      {"binder": "B5", "binding signal": 2.75},
      {"binder": "B6", "binding signal": 0.545},
      {"binder": "B7", "binding signal": 0.636},
      {"binder": "B8", "binding signal": 0.48},
      {"binder": "B9", "binding signal": 1.34},
      {"binder": "B10", "binding signal": 0.386},
      {"binder": "B11", "binding signal": 1.77},
      {"binder": "B12", "binding signal": 0.693},
      {"binder": "B13", "binding signal": 0.461},
      {"binder": "B14", "binding signal": 10.4},
      {"binder": "B15", "binding signal": 1.06},
      {"binder": "B16", "binding signal": 0.141},
      {"binder": "B17", "binding signal": 0.625},
      {"binder": "B18", "binding signal": 0.334},
      {"binder": "B19", "binding signal": 0.602},
      {"binder": "B20", "binding signal": 1.05},
      {"binder": "B21", "binding signal": 0.422},
      {"binder": "B22", "binding signal": 1.12}
    ]}
  ]
}
